Source: PubChem BioAssay AID588501 (NMMLSC, 2011)
Screen size: about 360,000 compounds; about 420 (0.12%) were called active. Inconclusive results, whose numbers are uncertain, are shown with a selection of clear calls. Cut-off read from the data, not from the text of the source: active = inhibition above about 30%; inconclusive = no clear call, values can overlap the other calls; inactive = below that.

Target: Lethal factor (Bacillus anthracis) (UniProt P15917)
Assay: anthrax lethal factor cleavage blockers – biochemical, multiplex microsphere, MLPCN library, primary screen (AID 588501); note: plate controls were buffer without enzyme for full effect and enzyme alone for no effect
Settings: multiplex microsphere protease cleavage assay, LF; at 10 µM; stronger effect = higher value

Sequence of UniProt P15917 (P15917 whole entry, looked up): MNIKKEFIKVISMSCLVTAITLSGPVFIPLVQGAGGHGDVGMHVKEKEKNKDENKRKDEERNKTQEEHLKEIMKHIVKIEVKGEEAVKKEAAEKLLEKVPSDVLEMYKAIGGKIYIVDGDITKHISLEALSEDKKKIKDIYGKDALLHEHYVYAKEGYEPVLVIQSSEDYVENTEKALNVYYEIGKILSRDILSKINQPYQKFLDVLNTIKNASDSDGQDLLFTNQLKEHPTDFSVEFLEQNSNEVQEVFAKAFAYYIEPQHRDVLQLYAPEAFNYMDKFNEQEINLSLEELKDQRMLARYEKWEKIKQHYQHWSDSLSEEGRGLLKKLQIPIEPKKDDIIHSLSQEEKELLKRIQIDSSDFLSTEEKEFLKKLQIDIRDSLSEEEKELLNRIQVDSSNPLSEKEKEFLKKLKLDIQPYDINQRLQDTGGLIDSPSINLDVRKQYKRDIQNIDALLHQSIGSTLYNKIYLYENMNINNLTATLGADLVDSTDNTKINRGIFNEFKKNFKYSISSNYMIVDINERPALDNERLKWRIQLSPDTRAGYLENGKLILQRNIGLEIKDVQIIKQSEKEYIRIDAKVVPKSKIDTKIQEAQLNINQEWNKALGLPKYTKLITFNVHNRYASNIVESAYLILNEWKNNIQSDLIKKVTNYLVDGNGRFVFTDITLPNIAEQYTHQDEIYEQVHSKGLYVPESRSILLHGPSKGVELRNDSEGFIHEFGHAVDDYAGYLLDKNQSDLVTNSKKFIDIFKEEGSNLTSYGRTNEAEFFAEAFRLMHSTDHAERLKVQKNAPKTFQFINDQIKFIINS

Structure (SMILES) | inhibition
COc1ccc(C(=O)Cn2nnc(-c3ccccc3NC(=O)C(F)(F)F)n2)cc1 | inactive: -0.1%
Cc1cc(NC(=O)Cn2nc(C(F)(F)F)c3c2CCC3)n(-c2ccccc2)n1 | inconclusive: 2.4%
O=C(Nc1ccncc1)c1ccc(Cl)c(S(=O)(=O)N2CCc3ccccc32)c1 | inconclusive: -2.3%
CCOC(=O)c1cn[nH]c1NC(=S)Nc1ccccc1 | inconclusive: -1.8%
COc1ccc(NC(C)=O)cc1NC(=O)c1cccc(S(=O)(=O)N2CCc3ccccc32)c1 | inconclusive: 9.6%
N#Cc1ccc(S(=O)(=O)N2CCCCC2c2cc(C(=O)Nc3cccc4c3CCCC4)no2)cc1 (centres undefined) | inactive: -2.2%
CCN(CC(=O)Nc1ccc(OC)cc1)C(=O)c1ccc(OCc2c(C)noc2C)cc1 | inconclusive: 5.2%
COC(=O)c1oc2nc(C)cc(C)c2c1N | inconclusive: -314%
O=S1(=O)CCC(NC(=S)Nc2ccc3ccccc3c2)C1 (centres undefined) | inconclusive: -5.2%
CCOC(=O)c1c(/N=C/c2c(O)n(-c3ccccc3F)c(=S)[nH]c2=O)sc2c1CCCC2 | active: 56.2%
O=C(Nc1ccccc1C(F)(F)F)N1CCN(c2ccc3nncn3n2)CC1 | inactive: -3.9%
CCn1c(SCC(=O)N(C)CC(=O)Nc2ccc(OC)cc2)nnc1-c1ccco1 | inconclusive: 8.9%
O=c1c(/C=C(\O)c2ccccc2)nc2ccccc2n1-c1ccccc1 | active: 41.3%
CC(=O)Nc1ccc(/C=C(\C#N)C(N)=O)cc1 | inconclusive: -18.2%
O=C1CCC(=O)N1c1nc2n(n1)C(c1ccccc1)C=C(c1ccc(Br)cc1)N2 (centres undefined) | inconclusive: -28.9%
Cc1ccc(CSCC(=O)N(C)CC(=O)Nc2ccccc2C(F)(F)F)cc1 | inconclusive: -1.6%
CN(CC(=O)Nc1cccc(F)c1)C(=O)CC1CCCCC1 | inconclusive: -8.3%
CCCOc1ccc(CSc2n[nH]c(C)n2)cc1 | inconclusive: 0.4%
CCOC(=O)c1c(-n2c(C)cc(C=C3C(=O)NC(=S)NC3=O)c2C)sc2c1CCCC2 | active: 37.6%
CN(CC(=O)Nc1ccccc1Cl)C(=O)COC(=O)C1=COCCO1 | inconclusive: -2.1%
Nc1ccc(-c2c3ccc(=O)cc-3oc3cc(O)ccc23)cc1C(=O)O | active: 128%
N#CC(C#N)=Cc1c[nH]c(=O)c(C#N)c1Nc1ccccc1 | inconclusive: 8.9%
O=C(OCC(=O)N1CCCc2ccccc21)c1cccc(S(=O)(=O)N2CCOCC2)c1 | inconclusive: 0.9%
Cc1cc(NC(=O)CSc2nc3ccccc3[nH]2)n(-c2ccccc2)n1 | inconclusive: -9.7%
